From PubChem BioAssay AID504332 (National Center for Advancing Translational Sciences (NCATS), 2011)
About 31,000 (8.9%) of roughly 350,000 compounds were called active. This list was built around the results that the source calls inconclusive (neither active nor inactive); the mix of calls is not that of the screen. Calls come from the whole dose curve; as a rule, active = well fitted inhibition curve with a large enough effect; inconclusive = small, poorly fitted or top-dose-only effect; inactive = no such curve, though single readings can be large or run the other way. Potencies beside an inconclusive call are fits to weak or partial responses and may not hold up.

Each compound was assayed against Histone-lysine N-methyltransferase EHMT2 (Homo sapiens) (UniProt Q96KQ7) (assay: qHTS Assay for Inhibitors of Histone Lysine Methyltransferase G9a). Conditions: G9a H3K9 monomethylation, AlphaScreen, 2 h; activity, negative = inhibition: at 59 µM (top of the series) unless noted.
Sequence of UniProt Q96KQ7 (Q96KQ7 whole entry, looked up): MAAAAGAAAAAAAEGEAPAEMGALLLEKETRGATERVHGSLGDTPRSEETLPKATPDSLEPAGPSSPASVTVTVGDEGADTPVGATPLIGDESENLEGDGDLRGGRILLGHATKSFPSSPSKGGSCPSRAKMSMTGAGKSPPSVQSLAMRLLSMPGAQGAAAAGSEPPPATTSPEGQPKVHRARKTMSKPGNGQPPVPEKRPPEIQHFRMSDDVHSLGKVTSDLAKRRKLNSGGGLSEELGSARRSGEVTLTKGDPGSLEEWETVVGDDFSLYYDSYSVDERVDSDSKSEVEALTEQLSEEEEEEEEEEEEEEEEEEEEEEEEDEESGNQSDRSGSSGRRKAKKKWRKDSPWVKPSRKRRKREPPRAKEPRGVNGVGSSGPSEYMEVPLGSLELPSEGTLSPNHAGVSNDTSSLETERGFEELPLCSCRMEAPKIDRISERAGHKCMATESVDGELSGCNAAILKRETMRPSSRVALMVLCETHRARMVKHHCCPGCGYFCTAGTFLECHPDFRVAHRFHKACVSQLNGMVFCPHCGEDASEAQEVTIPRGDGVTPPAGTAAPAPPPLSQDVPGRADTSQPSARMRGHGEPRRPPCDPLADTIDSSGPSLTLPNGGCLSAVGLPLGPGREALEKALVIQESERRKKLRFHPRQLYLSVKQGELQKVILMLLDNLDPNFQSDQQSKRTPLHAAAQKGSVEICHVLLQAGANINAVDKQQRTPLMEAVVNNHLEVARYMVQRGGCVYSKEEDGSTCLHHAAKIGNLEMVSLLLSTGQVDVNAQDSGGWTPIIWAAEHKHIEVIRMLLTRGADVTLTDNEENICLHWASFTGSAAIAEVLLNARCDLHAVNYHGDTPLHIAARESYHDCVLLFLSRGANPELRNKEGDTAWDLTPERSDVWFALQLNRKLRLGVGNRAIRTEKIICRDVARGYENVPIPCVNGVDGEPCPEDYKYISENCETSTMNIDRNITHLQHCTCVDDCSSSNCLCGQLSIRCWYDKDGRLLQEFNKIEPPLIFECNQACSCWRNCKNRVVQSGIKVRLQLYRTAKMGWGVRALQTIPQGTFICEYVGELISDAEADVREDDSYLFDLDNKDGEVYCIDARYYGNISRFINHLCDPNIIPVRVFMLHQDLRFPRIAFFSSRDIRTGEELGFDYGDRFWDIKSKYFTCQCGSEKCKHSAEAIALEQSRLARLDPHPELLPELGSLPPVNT
Procedure, shortened: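 Readings reflect AlphaScreen signal from monomethyl-H3K9 antibody detection. HMT at 20 nM; substrate b-H3K9 500 nM; cofactor SAM 20 uM; 2 h RT reaction; compounds tested as titrations in qHTS with 15 min preincubation.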
% is set by controls: 0 for no effect and ±100 for the full control effect; potency is the fitted concentration of half-maximal effect; tags give direction and shape of the fitted curve.
Note: nearly all actives have a fitted effect of over 75% in size.

Row | Structure (SMILES) | Potency | activity, negative = inhibition
1 | O=CN1CCN(C(C(=O)NC2CCCC2)c2ccc(Cl)cc2)CC1 (stereo not given) | inconclusive: 12.6 µM [inhibitor, partial curve] | 
2 | CSc1nsc(SC)c1NC(=O)OC1CCCCC1 | inconclusive: 22.4 µM [inhibitor, single point] | 
3 | NC(=O)c1ccc(Oc2ccc3ccc(=O)oc3c2)c([N+](=O)[O-])c1 | inconclusive: 31.6 µM [inhibitor, partial curve] | 
4 | CCN(CC(=O)Nc1ccc(NC(C)=O)cc1)C(=O)C1CC(=O)N(Cc2ccc(C)cc2)C1 (stereo not given) |  | inactive: -0.244% [at 0.501 µM]
5 | COc1ccc(C(CC(=O)N2CCN(c3ccccc3)CC2)c2c(OC)cc(OC)c3c(-c4ccccc4)cc(=O)oc23)cc1 (stereo not given) |  | inconclusive: -76% [inhibitor]
6 | Cc1ccc(OCC(=O)Nc2ccccc2C(=O)NC2CC2)cc1C |  | inactive: 35% [at 102 µM]
7 | CS(=O)(=O)c1ccc(S(=O)CC(=O)OCc2ccccc2)c([N+](=O)[O-])c1 (stereo not given) | active: 10 µM | 
8 | COc1cc([C@@H]2CC=C(C(=O)O)[C@H](c3ccccc3)N2S(=O)(=O)c2ccc(C)cc2)cc(OC)c1OC |  | inconclusive: -54.4% [inhibitor] [at 2.33 µM]
9 | CN1CCC(OC(=O)c2ccccc2Cl)CC1 |  | inactive: -25.2% [at 102 µM]
10 | CC(=O)Nc1ccc(NC(=O)CCc2nc3cccnc3n2Cc2cccs2)cc1 |  | inactive: 1.04%
11 | O=C1OCCN1/N=C\c1ccc([N+](=O)[O-])o1 |  | inactive: -24.2% [at 21.5 µM]
12 | COc1ccccc1NC(=O)c1ccc(CSc2ccccc2)o1 |  | inactive: 54.1% [at 102 µM]
13 | COc1ccc(N2CCN(C(=O)c3ccccc3Br)CC2)c([N+](=O)[O-])c1 | active: 56.2 µM | 
14 | COc1ccc(NC(c2nnc(-c3ccccc3)o2)c2ccccc2F)cc1Cl (stereo not given) | inconclusive: 14.1 µM [inhibitor, partial curve, poor fit] | 
15 | COc1cc(NC(=O)CSc2nnc(C)n3c2cc2oc(C)cc23)cc(OC)c1 |  | inactive: 3.03%
16 | CCOc1ccc(NC(=O)C(=O)NCCN2CCN(S(=O)(=O)c3ccc(C)cc3)CC2)cc1 |  | inactive: 0.12% [at 102 µM]
17 | O=C(C[n+]1cc(-c2ccc(Cl)cc2)n2c1CCC2)N1c2ccccc2Sc2ccccc21 | inconclusive: 79.4 µM [inhibitor, single point] | 
18 | Cc1c2cnn(CC(=O)NCc3ccc(F)cc3)c(=O)c2c(C)n1Cc1cccc(Cl)c1 |  | inactive: -5.25%

Row | Structure (SMILES) | Potency | activity, negative = inhibition
19 | CCOC(=O)c1c(C)[nH]c(C(=O)CN2C(=O)NC(C)(c3ccc(C)cc3)C2=O)c1C (stereo not given) | inconclusive: 44.7 µM [inhibitor, partial curve] | 
20 | COc1ccc(C(=O)NCC(=O)OCC(=O)c2cc(OC)c(OC)c(OC)c2)cc1OC | active: 50.1 µM | 
21 | COc1cc(/C=C(\C#N)C(N)=O)ccc1OS(=O)(=O)c1ccc(C)cc1 | inconclusive: 20 µM [inhibitor, single point] | 
22 | FC(F)(F)c1cccc(NC(=S)NCc2ccccn2)c1 |  | inactive: -18.2%
23 | O=C(Oc1ccc(N(C(=O)c2ccncc2)S(=O)(=O)c2ccc(Cl)cc2)cc1)c1ccncc1 | active: 50.1 µM | 
24 | Cc1cc(C(F)(F)F)c2c(N)c(C(=O)Nc3cc(C)on3)sc2n1 | inconclusive: 70.8 µM [inhibitor, partial curve] | 
25 | COc1ccc(Cl)c2sc(N3CCN(C(=O)C4=COCCO4)CC3)nc12 | inconclusive: 89.1 µM [inhibitor, partial curve, poor fit] | 
26 | Cn1nnc2c(N3CCN(c4cccc(Cl)c4)CC3)ncnc21 |  | inactive: 4.08%
27 | CN(C)S(=O)(=O)c1ccc(N2CCCC2)c(C(=O)Nc2nc3c(ccc4ccccc43)s2)c1 | inconclusive: 3.55 µM [inhibitor, single point] | 
28 | O=Cc1cc([N+](=O)[O-])ccc1N1CCN(Cc2ccc3c(c2)OCO3)CC1 | active: 44.7 µM | 
29 | NC(=O)c1nn2c(C(F)(F)F)cc(-c3ccccc3)nc2c1Br | inconclusive: 79.4 µM [inhibitor, single point] | 
30 | Cc1ccc2nc(-c3ccc(NC(=O)CSc4nccc(=O)[nH]4)cc3)sc2c1 | inconclusive: 56.2 µM [inhibitor, single point] | 
31 | COc1cccc(-c2nc(CCl)cs2)c1 | inconclusive: 56.2 µM [inhibitor, partial curve, poor fit] | 
32 | CCCOc1ccc(C(=O)CCC(=O)NNC(=O)c2cccs2)cc1 |  | inactive: 25.2% [at 12.7 µM]
33 | CN(CC(=O)Nc1ccc(Cl)c(C(F)(F)F)c1)C(=O)CC1Sc2ccccc2NC1=O (stereo not given) | inconclusive: 50.1 µM [inhibitor, partial curve, poor fit] | 
34 | COc1ccc(CCN2C(=O)CC(N3CCN(S(=O)(=O)c4ccccc4)CC3)C2=O)cc1 (stereo not given) |  | inconclusive: -55.2% [inhibitor]
35 | COc1ccc(C(=O)CSC2=C(C#N)C3(CCCCC3)C(C#N)=C(N)N2)cc1 | inconclusive: 70.8 µM [inhibitor, partial curve, poor fit] | 
